# Source: PMC4336329 (PLoS ONE, 2015)
# In all, about 310,000 compounds went through this assay and about 2,200 (0.71%) showed an effect of 50% or more. Effects have a minus sign here. The list shows a part of the results.
# Target: human ether-à-go-go-related gene (hERG) potassium channel (human, UniProt Q12809)
# Assay: primary screen, population patch clamp on CHO cells stably expressing hERG
# Chain of human ether-à-go-go-related gene (hERG) potassium channel (Q12809 whole entry, looked up): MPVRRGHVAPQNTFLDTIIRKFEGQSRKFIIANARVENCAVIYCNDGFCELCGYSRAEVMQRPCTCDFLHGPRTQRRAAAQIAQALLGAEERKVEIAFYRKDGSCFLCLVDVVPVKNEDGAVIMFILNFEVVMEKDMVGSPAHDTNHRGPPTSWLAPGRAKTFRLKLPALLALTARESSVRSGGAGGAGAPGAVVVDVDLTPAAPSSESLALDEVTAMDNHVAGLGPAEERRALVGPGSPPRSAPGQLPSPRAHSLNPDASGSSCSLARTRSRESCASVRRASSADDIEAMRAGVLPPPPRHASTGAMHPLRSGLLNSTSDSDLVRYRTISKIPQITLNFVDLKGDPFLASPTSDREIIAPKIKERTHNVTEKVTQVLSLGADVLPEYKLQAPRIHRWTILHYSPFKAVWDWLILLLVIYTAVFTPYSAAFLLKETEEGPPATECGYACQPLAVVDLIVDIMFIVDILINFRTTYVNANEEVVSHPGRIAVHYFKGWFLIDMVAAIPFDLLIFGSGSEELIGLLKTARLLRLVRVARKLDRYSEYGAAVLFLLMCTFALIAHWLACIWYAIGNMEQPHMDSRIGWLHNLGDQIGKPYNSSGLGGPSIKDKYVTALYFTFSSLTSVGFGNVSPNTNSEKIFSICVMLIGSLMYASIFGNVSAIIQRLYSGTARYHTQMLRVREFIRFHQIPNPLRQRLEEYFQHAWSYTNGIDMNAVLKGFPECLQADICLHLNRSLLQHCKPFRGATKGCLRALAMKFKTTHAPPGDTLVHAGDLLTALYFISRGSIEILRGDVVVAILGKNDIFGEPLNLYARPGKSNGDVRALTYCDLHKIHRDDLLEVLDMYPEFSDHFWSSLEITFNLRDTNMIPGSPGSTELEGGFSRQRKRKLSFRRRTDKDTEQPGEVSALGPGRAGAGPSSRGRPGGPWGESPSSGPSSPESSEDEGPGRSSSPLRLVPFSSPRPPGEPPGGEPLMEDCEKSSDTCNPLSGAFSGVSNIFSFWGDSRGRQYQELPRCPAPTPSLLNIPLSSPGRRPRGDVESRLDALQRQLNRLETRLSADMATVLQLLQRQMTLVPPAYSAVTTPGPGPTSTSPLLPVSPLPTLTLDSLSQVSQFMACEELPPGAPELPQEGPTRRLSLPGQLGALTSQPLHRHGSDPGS
row,SMILES,"hERG current change (%, negative = inhibition) at 1uM [%]"
1,O=C(NNC(=O)c1ccc(Br)o1)c1ccc(NC(=O)c2ccccc2)cc1,20
2,CCCNC(=O)C(=O)Nc1ccc(N(C)C)cc1,13.8
3,CCC(C)N=Cc1c(Nc2ccccc2)nc2c(C)cccn2c1=O (centres unmarked),5.51
4,Cc1ccc(-n2c(Cc3ccccc3)n[nH]c2=S)cc1,12.8
5,COC(=O)C1Cc2c([nH]c3ccccc23)C(C(C)C)N1 (centres unmarked),2.04
6,O=S(=O)(NCCOCC(F)(F)C(F)F)c1ccc2oc3ccccc3c2c1,7.24
7,O=C(OCc1nc2ccccc2[n+]([O-])c1C(=O)c1ccccc1)c1cccnc1,8.38
8,CCOc1cc(C(N)=O)cc(Br)c1OCC,0.247
9,Cn1nnc(NC(=S)NC(=O)c2ccc(-c3ccc(Br)cc3)o2)n1,7.46
10,Cc1ccc(SCC(=O)OCC(=O)NCc2cccs2)cc1C,6.86
11,CCS(=O)(=O)N1Cc2ccccc2CC1C(=O)Nc1ccc(OC)c(OC)c1 (centres unmarked),6.71
12,c1ccc(COCCN2CCN(CCOCc3ccccc3)CC2)cc1,-19.6
13,CCN(CC)CCN(Cc1cc2cc3c(cc2[nH]c1=O)OCCO3)C(=S)NCCCOC,10.9
14,CSCCC1NC(=O)N(CC(=O)Nc2c(Cl)cc(Cl)cc2Cl)C1=O (centres unmarked),5.22
15,CC(Cl)C(=O)c1c(N)n(C)c(=O)n(C)c1=O (centres unmarked),-0.109
16,C=C(C)C1CC=C(C)/C(=N/NC(=O)CNc2ccc(OCC)cc2)C1 (centres unmarked),4.56
17,Cc1nc2ncnn2c(N2CCN(C(=O)c3cccc(F)c3)CC2)c1C,-23.1
18,COc1ccccc1N(CC(=O)Nc1ccc(S(=O)(=O)N2CCCCC2)cc1)S(C)(=O)=O,14.5
19,O=C(O)c1ccccc1C(=O)Nc1ccc(-n2nccc2C(F)(F)F)cc1,13.2
20,COC(=O)c1ccc(NC(=O)Nc2ccc(OC)c(OC)c2)cc1,11.1
21,CCOC(=O)C1=NN(C(C)=O)C2(CC(=O)N(c3cccc(C)c3)C2=O)C1 (centres unmarked),15.6
22,O=C(NCC(=O)N1CCN(C(=O)c2ccco2)CC1)c1ccccc1,-0.437

row,SMILES,"hERG current change (%, negative = inhibition) at 1uM [%]"
1,CC(=O)c1c(N2CCOCC2)nc2ccc(Br)cc2c1-c1ccccc1,5.75
2,Nc1nc(=S)[nH]c2c1C1(CCCC1)Cc1ccccc1-2,9.51
3,CC1CC(C)CN(C(=O)COC(=O)CNS(=O)(=O)/C=C/c2ccccc2)C1 (centres unmarked),-1.21
4,NC(=O)c1ccccc1NCC(=O)c1ccc(Cl)cc1,11.2
5,Cn1c(SCC(=O)NNC(=S)Nc2ccccc2)nnc1-c1ccncc1,10.8
6,O=C1/C(=C/c2cccnc2)CC/C1=C\c1cccnc1,1.87
7,CCOC(=O)C1CCN(S(=O)(=O)c2cccc(-c3csc(C)n3)c2)CC1,1.48
8,Br.Cc1ccc(SCc2cn3c(C)csc3n2)cc1,10.3
9,O=C(CCN1C(=O)c2cccnc2C1=O)NC1CCCCCC1,8.2
10,CC(C)=C(NC(=O)c1ccccc1)C(=O)NCCCC(=O)O,12.4
11,CCOC(=O)c1ccc(COC(=O)CCc2nc(-c3ccccc3)c(-c3ccccc3)o2)cc1,-3.73
12,COc1ccc(C(CC(=O)O)NC(=O)Cc2ccccc2)cc1 (centres unmarked),6.67
13,CSc1cccc(NC(=O)Cc2ccccc2[N+](=O)[O-])c1,11.6
14,COc1ccccc1/C=C1\SC(=S)N(CCC(=O)N2CCCCC2CCO)C1=O (centres unmarked),12.4
15,Cc1ccc2oc(-c3ccc(NC(=O)c4ccc5c(c4)OCO5)cc3)nc2c1,13
16,COc1ccc(C(=O)CCC(C)(C)[N+](=O)[O-])cc1,13.3
17,CCCCN(c1nc2ccccc2nc1Cl)S(=O)(=O)c1ccc(C)cc1,16.2
18,COc1ccccc1C(=O)NC1CCN(C(=O)Nc2ccc(F)cc2)CC1,4.21
19,COc1ccc(Br)cc1S(=O)(=O)N1CC(C)OC(C)C1 (centres unmarked),6.83
20,O=C(CN1CCN(CCOCCO)CC1)N1c2ccccc2Sc2ccc(Cl)cc21,0.749
21,Cc1c(NC(=O)CSc2nc(-c3ccco3)cc(C(F)(F)F)n2)c(=O)n(-c2ccccc2)n1C,-6.87
22,COc1cccc(N=Cc2ccc(O)cc2O)c1,13.4
